# “And” between values parts separate entries of the source, which are not always exact repeats. Equal values may be shown once. Inconclusive means that the source gave no clear call. Such entries were picked first, then a sample of the others. For part of these data: Potencies of inconclusive entries are left out as doubtful fits. The source made the active and inactive calls. Unless noted, the call rests on the fitted dose curve; in most records, active means well fitted curve in the direction sought with a large enough effect; inconclusive means small, poorly fitted or top-dose-only effect, or another doubt; inactive means no such curve, though single readings can be large; an effect the other way counts as inactive or inconclusive.
# Key:
# [1] = Primary redox qHTS assay for identification of artifact compounds. (AID 1845223); further: potency means the concentration at half of the fitted maximal effect
# Method in brief: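 Amplex Red (25 uM) and HRP (250 mU/mL) in HBSS, with compounds for 15 min, then 250 uM DTT for 30 min, room temperature, dark. Fluorescence 525/598 nm read; normalized to DMSO and 10 uM DA3003; Hill fit.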
# Tov112D = experiment: Primary qHTS to identify gynecologic anti-cancer compounds using libraries of approved drugs and bioactive compounds (AID 1345084); conditions: Gynecologic cancer cell panel viability, ATPlite luminescence, 48 h; activity change, negative = cytotoxicity: at 57.5 µM (top of the series); further: nearly all actives have a fitted effect of over 55% in size; further: potency means the concentration at half of the fitted maximal effect; on activity change, negative = cytotoxicity: on the % scale 0 is the no-effect control and ±100 the full control effect
# Method in brief: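 48 h compound exposure at 37 C, 5% CO2; five-point qHTS. ATPlite luminescence readout of cell ATP.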
# [2] = system: Zika virus NS2B-NS3 protease (linked construct); experiment: Primary screen NINDS Rhodamine qHTS for Zika virus inhibitors (AID 1347160); further: nearly all actives have a fitted effect of over 55% in size; further: potency means the concentration at half of the fitted maximal effect; on activity change, negative = inhibition: on the % scale 0 is the no-effect control and ±100 the full control effect
# Method in brief: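 Kinetic fluorescence (Ex 480 nm, Em 540 nm) over 15 min with 1.5 microM Rhodamine110 peptide and 25 nM linked protease.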
# [3] = Drug repurposing screens with cells derived from glioblastoma tumor samples (AID 1345199); conditions: GBM patient neurospheres viability, ATP luminescence, 48 h; Potency: tumour line A unless noted; activity, negative = cell killing: at 46 µM (top of the series), tumour line A unless noted; further: potency means the concentration at half of the fitted maximal effect; nearly all actives have a fitted effect of over 40% in size
# Method in brief: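 Four patient lines of CD133+ GBM neurospheres were screened at several concentrations; hits were retested in those lines plus three slower-growing GBM lines, using 48-hour treatment and ATP-based viability.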
# [4] = target: Cytochrome P450 2D6 (Homo sapiens) (UniProt P10635); experiment: Cytochrome P450 family 2 subfamily D member 6 (CYP2D6) small molecule antagonists: luciferase biochemical (cell-free) qHTS assay (AID 1645840; active means well fitted curve in the direction sought with a large enough effect in the repeat runs; inconclusive means weak or mixed curves; inactive means no such curve, though single readings can be large; an effect the other way counts as inactive or inconclusive; further: nearly all actives have a fitted effect of over 55% in size; further: potency means the concentration at half of the fitted maximal effect; on activity change, negative = inhibition: on the % scale 0 is the no-effect control and ±100 the full control effect)
# Method in brief: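 P450-Glo luminescent screen: recombinant CYP2D6 enzyme–proluciferin substrate mix preincubated with compound 10 min at room temperature, then NADPH regeneration added for 1 h at room temperature. Detection reagent added for 20 min; luciferin light read as relative luminescence units.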
# [5] = target: Cytochrome P450 2C9 (Homo sapiens) (UniProt P11712); experiment: Cytochrome P450 family 2 subfamily C member 9 (CYP2C9) small molecule antagonists: luciferase biochemical (cell-free) qHTS assay (AID 1645842; active means well fitted curve in the direction sought with a large enough effect in the repeat runs; inconclusive means weak or mixed curves; inactive means no such curve, though single readings can be large; an effect the other way counts as inactive or inconclusive; further: nearly all actives have a fitted effect of over 55% in size; further: potency means the concentration at half of the fitted maximal effect; on activity change, negative = inhibition: on the % scale 0 is the no-effect control and ±100 the full control effect)
# Method in brief: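 Luminescence, after 20 min with luciferin detection reagent, reflected CYP2C9 turnover during a 1 h NADPH-driven reaction at 37C. Enzyme-substrate mix contained 0.4% bovine serum albumin and was preincubated with compound 10 min at room temperature.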
# [6] = target: Glutathione peroxidase 1 (Homo sapiens) (UniProt P07203); experiment: Primary qHTS Assay for Inhibitors of Recombinant Selenoprotein Glutathione Peroxidase 1 (GPX1) (AID 1845191); conditions: activity, negative = inhibition: at 48.8 µM (top of the series); further: nearly all actives have a fitted effect of over 65% in size; further: potency means the concentration at half of the fitted maximal effect
# Method in brief: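 10 nM GPX1 + cpd, 30 min RT; start w/ 1 mM GSH, 0.5 mM cumene hydroperoxide, 0.5 mM NADPH, 100 nM GR, 0.01% BSA; buffer 50 mM Tris-HCl pH 7.5, 2 mM EDTA, 150 mM NaCl; Fl 340/450, 0 & 15 min.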
# [7] = qHTS of pediatric cancer cell lines to identify multiple opportunities for drug repurposing: Primary screen for SK-N-SH cells (AID 1347098); conditions: SK-N-SH viability, CellTiter-Glo luminescence, 48 h; activity change, negative = cytotoxic: at 57 µM (top of the series); further: on the % scale 0 is the no-effect control and ±100 the full control effect; nearly all actives have a fitted effect of over 65% in size
# Method in brief: (§1)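 Cells (500-1,000/well) rested 5 h, then received compounds for 48 h; metabolically active cells were measured by CellTiter-Glo luminescence. Final concentrations spanned up to 46 µM (MIPE, 11-point) or 0.59 nM-46 µM (NPC, 8-point) in primary screens, 11-point in follow-ups.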
# [8] = A High-Content qHTS Against Drug Library for the Identification of Small Molecules that Inhibit DYT1 Early Onset Primary Dystonia-Associated Cell Pathology (AID 1645839; calls by dose curve; further: potency means the concentration at half of the fitted maximal effect)
# Method in brief: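 In this high-content image screen, delE TorsinA mislocalization in inducible Flp-In 293 cells is scored as %pathology, with cell count serving as the counterscreen. Compound exposure lasts 48 h under tetracycline induction in reduced-serum medium.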
# [9] = qHTS of pediatric cancer cell lines to identify multiple opportunities for drug repurposing: Primary screen for OHS-50 cells (AID 1347103);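 further: plate controls were DMSO neutral control for no effect and bortezomib positive control for full effect; nearly all actives have a fitted effect of over 40% in size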
# Method in brief: as §1
# [10] = qHTS of pediatric cancer cell lines to identify multiple opportunities for drug repurposing: Primary screen for SJ-GBM2 cells (AID 1347091);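 further: plate controls were DMSO neutral control for no effect and bortezomib for full effect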
# Method in brief: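 Cell viability, CellTiter-Glo luminescence; 500-1,000 cells/well, 8- or 11-point titration, 48 h compound exposure at 37 degrees C, 5% CO2. Controls: DMSO neutral, bortezomib 2.3 µM final as positive.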
# [11] = qHTS of pediatric cancer cell lines to identify multiple opportunities for drug repurposing: Primary screen for Saos-2 cells (AID 1347097); conditions: Saos-2 viability, CellTiter-Glo ATP luminescence, 48 h; activity change, negative = cytotoxic: at 46 µM (top of the series); further: on the % scale 0 is the no-effect control and ±100 the full control effect; nearly all actives have a fitted effect of over 40% in size
# Method in brief: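 Cells seeded at 500-1,000 cells/well in growth media, rested 5 hours at 37 degrees C, 5% CO2, then dosed; MIPE compounds at 11-point (from 0.78 nM) and NPC at 8-point (from 0.59 nM) final concentrations. Viability by CellTiter-Glo luminescence after 48 hours.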
# CP335 = experiment: qHTS profiling for inhibitors of Plasmodium falciparum proliferation (AID 504749);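 further: 0% = DMSO vehicle and full inhibition = artemisinin control; nearly all actives have a fitted effect of over 60% in size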; conditions: P. falciparum in erythrocytes, SYBR Green DNA, 72 h; series mostly up to 28.7 µM
# Method in brief: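 Three-day growth assay of blood-stage parasites in erythrocytes (0.3% parasitemia, 2.5% hematocrit) at 37 C, 5% CO2, quantified by SYBR Green DNA staining after overnight detergent lysis.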
# Tags describe the fitted curve by direction and shape.
# Sequence of UniProt P07203 (P07203 whole entry, looked up): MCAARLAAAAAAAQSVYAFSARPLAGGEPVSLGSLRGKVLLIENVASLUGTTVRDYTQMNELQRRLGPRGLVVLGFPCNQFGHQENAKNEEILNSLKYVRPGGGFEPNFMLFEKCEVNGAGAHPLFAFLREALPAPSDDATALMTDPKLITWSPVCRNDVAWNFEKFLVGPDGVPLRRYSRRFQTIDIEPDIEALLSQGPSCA
# Sequence of UniProt P10635 (P10635 whole entry, looked up): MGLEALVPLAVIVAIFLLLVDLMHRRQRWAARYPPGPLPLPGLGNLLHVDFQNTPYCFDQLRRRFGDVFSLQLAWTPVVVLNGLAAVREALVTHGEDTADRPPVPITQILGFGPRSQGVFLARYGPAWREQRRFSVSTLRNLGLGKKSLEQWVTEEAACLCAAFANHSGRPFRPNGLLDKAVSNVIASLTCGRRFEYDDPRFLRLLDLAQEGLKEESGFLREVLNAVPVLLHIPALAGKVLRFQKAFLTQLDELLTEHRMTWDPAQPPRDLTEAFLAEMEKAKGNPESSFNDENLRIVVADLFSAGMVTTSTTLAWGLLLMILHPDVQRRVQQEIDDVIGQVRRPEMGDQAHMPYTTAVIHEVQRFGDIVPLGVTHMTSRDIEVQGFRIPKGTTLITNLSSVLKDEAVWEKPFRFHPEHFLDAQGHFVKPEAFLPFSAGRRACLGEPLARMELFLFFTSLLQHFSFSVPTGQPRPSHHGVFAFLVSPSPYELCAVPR
# Sequence of UniProt P11712 (P11712 whole entry, looked up): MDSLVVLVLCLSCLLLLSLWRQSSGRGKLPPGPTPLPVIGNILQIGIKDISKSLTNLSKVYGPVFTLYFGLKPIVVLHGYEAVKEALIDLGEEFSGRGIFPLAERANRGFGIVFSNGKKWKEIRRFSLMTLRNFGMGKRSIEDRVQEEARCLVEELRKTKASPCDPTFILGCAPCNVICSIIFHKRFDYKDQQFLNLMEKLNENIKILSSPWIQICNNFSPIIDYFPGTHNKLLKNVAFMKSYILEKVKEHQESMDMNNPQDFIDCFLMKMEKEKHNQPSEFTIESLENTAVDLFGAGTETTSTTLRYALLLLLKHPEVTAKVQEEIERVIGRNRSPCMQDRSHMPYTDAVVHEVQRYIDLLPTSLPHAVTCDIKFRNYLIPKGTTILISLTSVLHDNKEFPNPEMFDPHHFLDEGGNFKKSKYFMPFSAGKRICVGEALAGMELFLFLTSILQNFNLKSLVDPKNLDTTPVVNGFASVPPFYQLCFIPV
smiles,measurement,setting,value
CC(=O)OC1CC2(C)C(CCC(C)C23Cc2c(O)cc(CO)c(C=O)c2O3)C(C)(C)C1O (configuration not stated),Potency,[1],"inconclusive [activator, single point]"
same,Potency,Tov112D,inactive
C=C(NC(=O)C(=C)NC(=O)c1csc(C2=NC3c4csc(n4)C4NC(=O)c5csc(n5)C(C(C)(O)C(C)O)NC(=O)C5CSC(=N5)/C(=C/C)NC(=O)C(C(C)O)NC(=O)c5csc(n5)C3(CC2)NC(=O)C(C)NC(=O)C(=C)NC(=O)C(C)NC(=O)C(C(C)CC)NC2C=Cc3c(C(C)O)cc(nc3C2O)C(=O)OC4C)n1)C(N)=O (configuration not stated),Potency,[2],"inconclusive [inhibitor, partial curve, poor fit]"
same,Potency,[1],"inconclusive [activator, full curve]"
COc1cc2ncnc(Nc3ccc(F)c(Cl)c3)c2cc1NC(=O)/C=C/CN1CCCCC1,Potency,Tov112D,"inconclusive [cytotoxic, single point]"
Clc1ccccc1CNCC1CCC(CNCc2ccccc2Cl)CC1 (configuration not stated),Potency,Tov112D,"inconclusive [cytotoxic, partial curve, poor fit]"
CC1CCCC(SCC(O)C(=O)O)CC(=O)c2c(O)cc(O)cc2CC(=O)O1 (configuration not stated),Potency,[2],inactive
same,Potency,Tov112D,"inconclusive [cytotoxic, single point]"
C=C1C(=O)OC2C1CCC1(C)C(O)CC=C(C)C21 (configuration not stated),Potency,[2],"inconclusive [inhibitor, single point]"
same,Potency,[1],inactive
COc1ccc(/C=N/NC(=O)c2ccncc2)cc1OC,Potency,[3],"inconclusive [inhibitor, single point]"
CCOC(=O)c1cnn(-c2ccc(NC(=O)C(Cl)=C(Cl)Cl)cc2)c1C(F)(F)F,Potency,[4],active: 15.1 µM
same,Potency,[5],active: 6.74 µM
same,Potency,Tov112D,"inconclusive [cytotoxic, single point]"
C#CCN(Cc1cc2c(=O)n(C)c(CN3CCN(C)CC3)nc2cc1Cl)c1ccc(C(=O)NCc2cccnc2)cc1,Potency,[4],"inconclusive [inhibitor, single point]"
same,Potency,[1],"inconclusive [activator, partial curve, poor fit]"
same,Potency,Tov112D,inconclusive
O=C(NCc1cccs1)c1cc2nc(-c3ccco3)cc(C(F)(F)Cl)n2n1,Potency,[5],active: 0.301 µM
same,Potency,[6],"inconclusive [inhibitor, partial curve, poor fit]"
COc1ccc(Cl)c(Nc2ncnc3cc(OCC4CCN(C)CC4)c(OC)cc23)c1,Potency,[1],"inconclusive [activator, full curve, poor fit]"
Oc1ccc(Nc2nc(-c3ccc(Cl)cc3)cs2)cc1,Potency,Tov112D,"inconclusive [cytotoxic, partial curve, poor fit]"
CS(=O)(=O)N1CCC(NC(=O)c2[nH]ncc2NC(=O)c2c(Cl)cccc2Cl)CC1,Potency,[4],inactive
same,Potency,Tov112D,active: 8.91 µM
Cc1ccc(S(=O)(=O)n2ccc(-c3c(-c4ccc(Cl)cc4)noc3C)n2)cc1,Potency,Tov112D,"inconclusive [cytotoxic, single point]"
CC(C)c1c(O)ccc2c1CC[C@H]1C(C)(C)CCC[C@]21C,Potency,[2],active: 22.4 µM
CC1(C)CC[C@]2(C(=O)O)CC[C@]3(C)C(=CCC4[C@@]5(C)C[C@@H](O)[C@H](O)C(CO)(CO)C5CC[C@]43C)C2[C@@H]1O (some centres not stated),Potency,Tov112D,active: 7.94 µM
Cn1cc(S(C)=O)c(=O)c2ccc(F)cc21 (configuration not stated),Potency,[7],inactive
same,Potency,[2],"inconclusive [inhibitor, single point]"
same,Potency,[8],"inconclusive [inhibitor, single point]"
same,Potency,[3],"inconclusive [inhibitor, partial curve]"
CCOc1cc(OCC)c(C(=O)CCC(=O)O)cc1OCC,Potency,[7],inactive
same,Potency,[5],inactive
CC(C)c1ccc(-c2cc(=O)c3ccccc3o2)cc1,Potency,[4],active: 15.1 µM
same,Potency,[5],active: 5.35 µM
same,Potency,Tov112D,"inconclusive [cytotoxic, single point]"
C=C1/C(=C/C=C2\CCC[C@]3(C)[C@@H]([C@H](C)CC[C@@H](O)C(C)(C)O)CC[C@@H]23)C[C@@H](O)C[C@@H]1O,Potency,[1],"inconclusive [activator, full curve]"
CCn1nc(C2CCN(C(=O)CCO)CC2)nc1-c1cnc(N)c(-c2nnc(C(C)(C)C)o2)n1,Potency,[6],active: 20.2 µM and active: 20.5 µM
CC(C)Cn1cnc2c1c(=O)n(C)c(=O)n2C,Potency,[9],inactive
same,Potency,[8],inactive
same,Potency,[3],"inconclusive [inhibitor, partial curve, poor fit]"
NC(=O)c1cccc2[nH]c(-c3ccc(C4CCCN4)cc3F)nc12 (configuration not stated),Potency,[4],"inconclusive [inhibitor, single point]"
Cc1cc(CS(=O)(=O)c2ccccc2)cc(OCc2ccc(CN3CCC[C@@H]3CO)cc2)c1,Potency,[2],inactive
same,Potency,Tov112D,"inconclusive [cytotoxic, single point]"
NC(Cc1ccc(Cl)cc1)C(=O)O (configuration not stated),"activity change, negative = cytotoxic",[10],inactive: 16.4% [at 0.597 µM]
same,"activity change, negative = cytotoxic",[11],inactive: 1.27% [at 0.597 µM]
same,"activity change, negative = inhibition",[4],inactive: 5.71% [at 0.91 µM]
same,Potency,CP335,inactive
C=CC1(C)CC=C2C(CCC3C(C)(C(=O)O)CCCC23C)C1 (configuration not stated),Potency,[6],inactive
CCCCN(CCCC)C(=O)CN1C[C@H](c2ccc3c(c2)OCO3)[C@@H](C(=O)O)[C@@H]1c1ccc(OC)cc1,Potency,[2],"inconclusive [inhibitor, single point]"
CCC/C=C/c1cc2c(C=O)c(O)c(CC=C(C)C)cc2o1,Potency,[6],"inconclusive [inhibitor, partial curve]"
O=C(Nc1ccc(S(=O)(=O)Nc2ccccc2Cl)c(Cl)c1)c1ccccn1,Potency,[2],"inconclusive [inhibitor, full curve]"
CCNc1nc(Nc2cc(F)c(C(=O)N3CCOCC3)cc2OC)ncc1C(F)(F)F,Potency,[4],inactive
C=C1C(=O)OC2CC(C)=C(C(C)CCCO[C@@H]3O[C@H](CO)[C@@H](O)[C@H](O)[C@H]3O)C(O)C12 (some centres not stated),Potency,[2],"inconclusive [inhibitor, single point]"
O=C(NCCCN1CCC2(CC1)OCc1ccccc12)[C@H]1CCCN1Cc1ccccc1,Potency,[5],inactive
COc1cc(N2CCOCC2)ccc1NC(=O)c1csc(-c2cccnc2)n1,Potency,[4],"inconclusive [inhibitor, partial curve]"
same,Potency,[1],inactive
C[C@@H]1CC[C@]2(C(=O)OC3OC(CO)C(O)C(O)C3O)CC[C@]3(C)C(=CCC4[C@@]5(C)CC[C@H](O)[C@](C)(C(=O)O)C5CC[C@]43C)C2[C@]1(C)O (some centres not stated),Potency,[1],"inconclusive [activator, partial curve, poor fit]"

# Reference: PubChem BioAssay (NCATS)
